Experimental data reported in the supplement of paper PMC4996465.
Viability of KB3-1 and Nalm-6 cells after 48 h of drug alone (CellTiter-Glo), 11 doses over about 4.5 log units. % of DMSO wells, lower = more cell loss; AC50 from the fitted curve, lower = more potent. No active / inactive call. Nalm-6 was screened in two runs. AC50 is listed only for well-fitted inhibitory curves. KB3-1 is a HeLa-derived carcinoma line, Nalm-6 a B-cell precursor leukaemia line.

How the values were obtained:
[1] = system: KB3-1; experiment: viability (% of DMSO control); higher = more viable cells
Protocol: (§1)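 Eleven-dose screen of the NCATS MIPE 3 library on cells without co-treatment; CellTiter-Glo after 48 h, as % of DMSO wells.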

[2] = system: Nalm-6; experiment: as above
Protocol: as §1

Structure (SMILES) | viability ([1]; 0.00078 µM) | viability ([1]; 0.00234 µM) | viability ([1]; 0.00702 µM) | viability ([1]; 0.0211 µM) | viability ([1]; 0.0632 µM) | viability ([1]; 0.19 µM) | viability ([1]; 0.569 µM) | viability ([1]; 1.71 µM) | viability ([1]; 5.12 µM) | viability ([1]; 15.4 µM) | viability ([1]; 46.1 µM) | viability ([2]; run: 1, 0.00078 µM) | viability ([2]; run: 1, 0.00234 µM) | viability ([2]; run: 1, 0.00702 µM) | viability ([2]; run: 1, 0.0211 µM) | viability ([2]; run: 1, 0.0632 µM) | viability ([2]; run: 1, 0.19 µM) | viability ([2]; run: 1, 0.569 µM) | viability ([2]; run: 1, 1.71 µM) | viability ([2]; run: 1, 5.12 µM) | viability ([2]; run: 1, 15.4 µM) | viability ([2]; run: 1, 46.1 µM) | viability ([2]; run: 2, 0.00078 µM) | viability ([2]; run: 2, 0.00234 µM) | viability ([2]; run: 2, 0.00702 µM) | viability ([2]; run: 2, 0.0211 µM) | viability ([2]; run: 2, 0.0632 µM) | viability ([2]; run: 2, 0.19 µM) | viability ([2]; run: 2, 0.569 µM) | viability ([2]; run: 2, 1.71 µM) | viability ([2]; run: 2, 5.12 µM) | viability ([2]; run: 2, 15.4 µM) | viability ([2]; run: 2, 46.1 µM)
COc1ccc(-c2oc3cc(OC)ccc3c2C(=O)c2ccc(C#N)cc2)cc1 | 92.6% | 103% | 99% | 102% | 110% | 102% | 103% | 105% | 100% | 91.8% | 89.9% | 99.3% | 98.8% | 104% | 115% | 117% | 124% | 115% | 123% | 123% | 121% | 34.5% | 103% | 105% | 105% | 104% | 109% | 104% | 107% | 103% | 114% | 105% | 95.9%
COc1ccc(COc2cc3oc(=O)c4cc(C(C)O)ccc4c3cc2OC)cc1 (centres undefined) | 107% | 108% | 109% | 109% | 109% | 109% | 104% | 105% | 99.4% | 106% | 86.4% | 118% | 106% | 106% | 115% | 116% | 114% | 119% | 117% | 115% | 109% | 70.5% | 109% | 100% | 104% | 102% | 103% | 104% | 102% | 107% | 99.1% | 103% | 58.6%
COc1ccc2c(c1)CC[C@@H](CN(C)CC(=O)O)[C@H]2c1ccccc1 | 102% | 111% | 104% | 99.8% | 98% | 106% | 110% | 106% | 108% | 106% | 106% | 97.6% | 106% | 111% | 117% | 113% | 103% | 109% | 102% | 111% | 109% | 114% | 103% | 107% | 105% | 110% | 99.9% | 99.4% | 102% | 106% | 102% | 102% | 106%
C[C@@H](N)C1CC[C@@H](CC1)C(=O)NC2=CC=NC=C2 (some centres undefined) | 91.7% | 93.4% | 92.1% | 92.4% | 95.4% | 92.9% | 91% | 103% | 99.3% | 96.5% | 90.6% | 96% | 94.8% | 103% | 107% | 110% | 111% | 110% | 109% | 108% | 112% | 89.7% | 101% | 111% | 107% | 112% | 108% | 107% | 111% | 104% | 107% | 117% | 117%
C[C@H](NC(=O)Cc1cc(F)cc(F)c1)C(=O)N[C@@H]1C(=O)N(C)c2ccccc2-c2ccccc21 | 93.2% | 97% | 93.8% | 77.9% | 93% | 96.3% | 101% | 97.4% | 98.1% | 99.1% | 81% | 90.3% | 93.3% | 96.8% | 95% | 97.1% | 105% | 110% | 105% | 106% | 102% | 74.3% | 95.3% | 105% | 96.7% | 98.8% | 96.8% | 92.4% | 94.5% | 103% | 101% | 99.2% | 83.7%
Cn1cc(-c2ccc3nnc(C(F)(F)c4ccc5ncccc5c4)n3n2)cn1 | 106% | 105% | 103% | 95.5% | 102% | 93.5% | 100% | 103% | 96% | 88.2% | 86.3% | 107% | 112% | 106% | 107% | 113% | 118% | 114% | 87.5% | 104% | 103% | 78% | 111% | 115% | 85.8% | 105% | 112% | 116% | 110% | 108% | 110% | 102% | 84.9%
CN(C(=O)c1ccc(F)cc1C(F)(F)F)C1CCN(c2nnc(-c3ccnn3C)c3ccccc23)CC1 | 98.1% | 94.6% | 96.6% | 92.8% | 93.6% | 96.7% | 95.2% | 87.9% | 87.2% | 87.9% | 69% | 96.1% | 95.6% | 106% | 109% | 108% | 116% | 105% | 112% | 101% | 96.6% | 31.1% | 106% | 108% | 110% | 106% | 105% | 102% | 108% | 101% | 105% | 106% | 70.6%
O=C(N[C@@H](c1ccccc1)[C@@H]1CCCCN1)c1cccc(C(F)(F)F)c1Cl | 104% | 99.8% | 102% | 102% | 107% | 105% | 105% | 102% | 101% | 95.7% | 9.94% | 107% | 100% | 110% | 109% | 110% | 110% | 110% | 101% | 103% | 102% | 2.99% | 100% | 99.7% | 105% | 105% | 103% | 107% | 105% | 107% | 104% | 98.7% | 1.69%
